# Measurements published in ChEMBL document CHEMBL4888484, “Replenishing the malaria drug discovery pipeline: Screening and hit evaluation of the MMV Hit Generation Library 1 (HGL1) against asexual blood stage Plasmodium falciparum ,using a nano luciferase reporter read-out” (2022).
# Among all 150,000 compounds or so, about 540 (0.36%) showed an effect of 50% or more. Some of the results follow.
# Test system: Plasmodium falciparum
# Assay: Primary screen in NF54 nanoGlo assay, in single point, at 2uM, 72h; a lower Z score goes with more inhibition
# Format: functional, Erythrocyte
# Settings: timepoint 72 hour
SMILES,% Inhibition [%],Z score
Oc1ccc(Cn2ccnc2-c2cc3n(n2)CCCNC3)cc1,-13,1.56
O=C(N[C@H](c1ccccc1)C1CC1)C(c1ccccc1)c1ccccc1,42,-1.81
COCCN(C[C@H](O)C(F)(F)F)C(=O)c1cc(C)c(F)c(C)c1,4,-0.53
Cc1ccc(C2(c3noc([C@@H]4CC[C@H](C)O4)n3)CCOCC2)cc1,-17,1.67
C[C@@H]1CCN[C@H](C(F)(F)F)[C@@H]1NC(=O)C(F)(F)F,-11,1.78
Cc1cccn2c(CNC(=O)N(C)[C@H](c3ccccn3)C3CC3)cnc12,14,-2.57
CN(C1CCCCC1)S(=O)(=O)N1CCC2(CC1)C[C@@H]2c1nnc(-c2ccccc2)o1,0,0.01
Cc1n[nH]c(=O)nc1NCc1cccnc1,0,-0.01
CCc1nnc2sc(-c3cc(-c4ccccc4)nc4ccccc34)nn12,-1,0.16
COC[C@@H]1CN(C(=O)c2cscn2)C[C@H]1c1ccccn1,-14,2.4
Cc1nnc(-c2ccccc2C[C@H]2CCCCO2)s1,-12,2.43
O=C(COc1cccc(-n2cnnc2)c1)Nc1nc(C2CC2)n[nH]1,-10,1.12
CC1CCN(C(=O)[C@H]2CCCN(C(=O)c3nnc(C(=O)Nc4ccc5c(c4)OCO5)s3)C2)CC1,-8,0.71
Cc1nnc(CNC(=O)CCC(C)(C)C)o1,-8,0.9
CN(C(=O)c1cc(C2CC2)on1)[C@H]1CCN(Cc2ccccc2)C1,-7,0.96
COC[C@@](C)(O)CNC(=O)C(=O)NCc1ccc(C)cc1,-12,1.71
Cc1ccc2nc(N3CCC(O)CC3)c(CN(C[C@H]3COc4ccccc4O3)C(=O)C3CCCCC3)cc2c1,-5,0.86
COC(=O)[C@]1(C)CN(C(=O)Nc2ccncn2)C[C@H]1C,-2,0.27
COCCN(Cc1csc(COc2ccccc2C(C)C)n1)S(=O)(=O)c1ccc(C)cc1,-8,1.48
COCCn1c(N)c(N(Cc2ccccc2)C(=O)c2cc(OC)ccc2OC)c(=O)[nH]c1=O,-2,0.28
COCC(=O)Nc1cc(C(=O)N(C)C[C@H](C)CN2CCCC2)cc2nc(-c3ccccc3)n(C)c12,-2,0.34

SMILES,% Inhibition [%],Z score
c1ccc(Oc2cccc([C@@H]3c4cccn4CCCN3Cc3ccco3)c2)cc1,-4,0.52
c1coc(-c2nnc(CN(CC3CCCO3)CC3CCCO3)o2)c1 (stereo unspecified),-2,0.33
C[C@@H](CNC(=O)NCc1nccc(C(F)(F)F)n1)N(C)C1CC1,-2,0.21
CCn1cccc1-c1nc(C)c(C(=O)NCCc2ccc(Cl)cc2)s1,0,-0.05
CCN1CCC[C@](C)(C(=O)N2CCN(c3ccc4nccn4n3)CC2)C1,-6,1.16
c1csc(-c2cc(CN3CCC[C@H](Cn4cncn4)C3)no2)c1,-10,1.31
Cc1cc(-n2cncn2)ccc1C(=O)N1CCC[C@@H]1COc1ccc(F)cc1,-6,0.83
CC(C)c1scnc1NC(=O)NC[C@](C)(O)c1cccc(F)c1,8,-1.53
COCCN(Cc1c(C)nn(-c2ccccc2)c1Oc1cccc(F)c1)C[C@H](O)CN1CCOCC1,-4,0.57
C[C@]1(CO)C2CC[C@@H](O)[C@@H](CC(=O)N3CCC[C@H]3CO)[C@]2(C)CC[C@H]1OC(=O)Nc1ccccc1 (stereo partly specified),1,-0.15
OC[C@H]1C=C[C@@H](Nc2cnc3ccccc3n2)C1,-4,0.41
O=C(c1ccc2ncsc2c1)N1CCC(n2cnc3ncccc3c2=O)CC1,-14,2.42
CN1CCC[C@H]1c1nc(C2CN(C(=O)CCC3CCCC3)C2)no1,9,-1.03
Cn1cc(Br)c(CNc2nnc(C3CCCCC3)o2)n1,-1,0.09
CNC(=O)[C@H]1c2nnc(C)n2CCN1C(=O)Cc1cccc(F)c1,-14,1.69
CN1CCCN(C(=O)[C@H]2CC23CCN(Cc2cccs2)CC3)CC1,-11,1.43
CCN(CC(=O)NCc1cccnc1-n1cnc2ccccc21)C1CC1,-11,1.51
Cc1ccccc1CNC(=O)[C@H]1CCCN(c2nc3ccc(Br)cc3[nH]2)C1,-3,0.57
CC(C)CC1(C(=O)NCc2nnc3n2CCC3)CCC1,-8,0.8
CC(=O)N[C@H](c1ccc(F)cc1F)C(C)(C)C,7,-0.89
CN1CCN(C(C)(C)CNC(=O)CCc2cn[nH]c2)CC1,8,-1.16

SMILES,% Inhibition [%],Z score
Cc1cc(Cl)ccc1CN(C)CC(C)(C)S(C)(=O)=O,-9,0.82
Cc1cccc(Cl)c1S(=O)(=O)NC[C@H](O)CN(C)C,-3,0.41
CCOc1ncccc1-c1ccc(C(N)=O)cn1,-5,0.68
CCCc1nnc(C(=O)N2CCC[C@@](CO)(CC(C)C)C2)o1,8,-1.59
COCC1CCN(C(=O)C[C@H](C)C(=O)c2cccc(F)c2)CC1,-11,1.13
CCC(C)C(NC(=O)c1cc(C)c(F)cc1Cl)C(N)=O (stereo unspecified),-9,1.23
COc1cccc(NC(=O)Cn2nc3c(N4CCCC4)nccn3c2=O)c1,3,-0.53
Cc1n[nH]c(C)c1Cc1nc(CN2CCN(C)CC2)no1,5,-0.66
N#Cc1ccc(-c2ccc(Oc3nccnc3C#N)cc2)cc1,-14,2.24
Cc1nc2c(NC(=O)[C@H]3CCCO3)cccc2o1,12,-1.44
CC1CN(CCNCc2csc(C(C)(C)C)n2)CC(C)O1 (stereo unspecified),-18,2.09
COc1ccc(C(=O)N2C[C@@H](O)C[C@H]2c2nnc3n2CCN(C(=O)C(C)C)C3)cn1,-1,0.1
Cc1cc(C)c(C#N)c(N2CCC[C@H](c3nccn3CC3CC3)C2)n1,-6,0.8
O=C(NCc1cccc2nsnc12)C1(C(=O)NC2CC2)CCC1,-6,0.69
CC(C(=O)Nc1ccc(N2CCOCC2)cc1)N1CCCC(C(=O)Nc2ccc(Cl)cn2)C1 (stereo unspecified),-17,3.22
CC(=O)N(c1nc(CN(C)[C@H](c2ccccc2)C(F)(F)F)cs1)C1CC1,-3,0.46
O=C(CCNc1ncccn1)N1CCN(Cc2ccc(-c3cccc(Cl)c3)s2)CC1,-7,1.41
O=C(NC1CCOC(c2cccnc2)C1)N1CCCc2ccccc2CC1 (stereo unspecified),-8,1.28
N#CCc1ccc(NCc2cnc3ccc(Br)cn23)cc1,-10,0.93
CC(C)(C)OC(=O)c1ccc(C#N)cc1,-7,1.13
CCOc1ccc(-n2nnc(C)c2C(=O)N2CCC(C(N)=O)CC2)cc1,-18,1.63

SMILES,% Inhibition [%],Z score
O=C(c1ccccc1-c1ccccc1)N1CCc2ccccc2C1,-8,1.08
CCN(C(=O)c1ccoc1C)[C@H]1CCS(=O)(=O)C1,-4,0.73
CC[C@H](NCC(=O)NC(=O)NC)C(C)(C)c1ccccc1,-13,1.35
CCOc1ccc(CNC(=O)C[C@H](C)S(=O)(=O)c2cc3c(cc2C)NC(=O)CO3)cc1OC,-15,1.82
CCc1nccc(-c2nccn2Cc2csc(C)n2)n1,-2,0.47
Cc1cnc(NC(=O)c2sc(Nc3cc(Cl)ccc3F)nc2N)o1,5,-0.61
COc1ccnc(-c2cccc(C(=O)N3CCCC4(CCOCC4)C3)c2)n1,-13,2.14
O=C(c1ccncc1)N1C[C@H]2CC[C@@H](C1)N(C(=O)Cc1cccnc1)C2,-19,1.71
CCCC(=O)OCc1ccnc(N(C)C)c1,-8,0.67
Cc1cccc2c1OCC[C@@H]2NC(=O)Cn1cccc(C)c1=O,-4,0.58
CC1CCN(C(=O)C[C@@H]2C=CCC2)CC1,-12,2.34
CCC(CC)n1nc(C)cc1NC(=O)c1cc(-c2cnn(C)c2C)on1,-4,0.52
O=C(NC1CCOCC1)NC(c1cccs1)c1cccs1,-5,0.87
CC[C@H]1CN(C(=O)N2CCC(C(=O)NCCCc3ccccc3)CC2)c2cc(C)ccc2O1,2,-0.48
C=CCO[C@H]1[C@H](NC(=O)COC)c2ccccc2C12CCN(Cc1c(C)nn(C(C)C)c1C)CC2,11,-1.44
CCOc1cc(CO)ccc1OCC(=O)NC(C)(C)C,-5,0.69
Cc1c(F)cccc1-n1nnc(C(=O)NC2CC2)c1C,9,-1.1
Cc1nn(C)cc1-c1cc(-c2nnc(Nc3ccn(Cc4ccccc4Cl)n3)s2)no1,37,-5.42
Cc1cc(NC(=O)N2C[C@@H]3CCC[C@]3(C(N)=O)C2)cn2ccnc12,-2,0.21
Cc1c(Cl)cccc1OCC(=O)NCCc1ccc[nH]1,-10,1.53
